Measured values reported in the antibiotic and cytotoxicity screens of Wong et al. (2023).
This is one part of the list.

Tests used:
HSkMC = human skeletal muscle cells; test: cytotoxicity call (relative viability < 0.9); conditions: 10 µM
HepG2 = test: cytotoxicity call (relative viability < 0.9); conditions: 10 µM
S. aureus RN4220 = test: growth inhibition call (relative growth <= 0.2); conditions: 50 µM

C[C@@H]1CN([C@@H](C)CO)C(=O)Cc2cc(NC(=O)Nc3cccc4ccccc34)ccc2O[C@H]1CN(C)S(=O)(=O)c1ccc(Cl)cc1
cytotoxicity call (HSkMC): inactive | cytotoxicity call (HepG2): inactive | growth inhibition call (S. aureus RN4220): inactive

[N-]=[N+]=NCc1ccccc1C[C@]1(C(=O)N2CCCCC2)N=C(c2ccc(OCCCO)cc2)O[C@H]1c1ccccc1
cytotoxicity call (HSkMC): inactive | cytotoxicity call (HepG2): inactive | growth inhibition call (S. aureus RN4220): inactive

Cc1ccc(S(=O)(=O)N(C)C[C@H]2Oc3ccc(NS(=O)(=O)c4cn(C)cn4)cc3CC(=O)N([C@H](C)CO)C[C@H]2C)cc1
cytotoxicity call (HSkMC): inactive | cytotoxicity call (HepG2): inactive | growth inhibition call (S. aureus RN4220): inactive

Cc1noc(C)c1NC(=O)Nc1ccc2c(c1)CC(=O)N([C@H](C)CO)C[C@@H](C)[C@H](CN(C)CC1CC1)O2
cytotoxicity call (HSkMC): inactive | cytotoxicity call (HepG2): inactive | growth inhibition call (S. aureus RN4220): inactive

Cc1ccc(S(=O)(=O)Nc2ccc3c(c2)C(=O)N([C@@H](C)CO)C[C@H](C)[C@@H](CN(C)S(=O)(=O)c2ccc(C)cc2)OCCCC[C@H](C)O3)cc1
cytotoxicity call (HSkMC): inactive | cytotoxicity call (HepG2): inactive | growth inhibition call (S. aureus RN4220): inactive

CN(C)CCc1cc(Br)c(OCCCNC(=O)/C=C/c2cc(Br)c(OCCN3CCCC3)c(Br)c2)c(Br)c1
cytotoxicity call (HSkMC): active | cytotoxicity call (HepG2): active | growth inhibition call (S. aureus RN4220): inactive

C[C@H](CO)N1C[C@H](C)[C@H](CN(C)S(=O)(=O)c2cn(C)cn2)Oc2ccc(NC(=O)C3CC3)cc2CC1=O
cytotoxicity call (HSkMC): inactive | cytotoxicity call (HepG2): inactive | growth inhibition call (S. aureus RN4220): inactive

O=C(NCCN1CCNCC1)c1ccccn1
cytotoxicity call (HSkMC): inactive | cytotoxicity call (HepG2): inactive | growth inhibition call (S. aureus RN4220): inactive

Cc1cc(C(=O)Nc2cccc3c2O[C@H](CN(C)S(C)(=O)=O)[C@@H](C)CN([C@@H](C)CO)C3=O)n(C)n1
cytotoxicity call (HSkMC): inactive | cytotoxicity call (HepG2): inactive | growth inhibition call (S. aureus RN4220): inactive

C[C@@H]1CN([C@H](C)CO)C(=O)CCCn2cc(nn2)CO[C@@H]1CN(C)C(=O)Nc1ccc(N2CCCCC2)cc1
cytotoxicity call (HSkMC): inactive | cytotoxicity call (HepG2): inactive | growth inhibition call (S. aureus RN4220): inactive

C[C@H]1CN([C@@H](C)CO)C(=O)c2cc(NS(=O)(=O)c3ccc(F)cc3)ccc2O[C@H]1CN(C)S(=O)(=O)c1ccccc1
cytotoxicity call (HSkMC): inactive | cytotoxicity call (HepG2): inactive | growth inhibition call (S. aureus RN4220): inactive

C[C@@H]1CN([C@@H](C)CO)C(=O)c2c(c3ccccc3n2C)-c2ccccc2CO[C@@H]1CN(C)C(=O)N[C@H](C)c1ccccc1
cytotoxicity call (HSkMC): inactive | cytotoxicity call (HepG2): inactive | growth inhibition call (S. aureus RN4220): inactive

COc1ccc(S(=O)(=O)N(C)C[C@H]2Oc3c(NC(=O)C4CC4)cccc3C(=O)N([C@@H](C)CO)C[C@H]2C)cc1
cytotoxicity call (HSkMC): inactive | cytotoxicity call (HepG2): inactive | growth inhibition call (S. aureus RN4220): inactive

CN1C(=O)c2cc(NS(=O)(=O)c3cccc(F)c3)ccc2OC[C@H]2O[C@H](CC(=O)NCCN3CCCCC3)CC[C@H]21
cytotoxicity call (HSkMC): inactive | cytotoxicity call (HepG2): inactive | growth inhibition call (S. aureus RN4220): inactive

Cc1ccc(S(=O)(=O)Nc2ccc3c(c2)C(=O)N([C@@H](C)CO)C[C@H](C)[C@H](CN(C)S(=O)(=O)c2ccc(Cl)cc2)OCCCC[C@@H](C)O3)cc1
cytotoxicity call (HSkMC): inactive | cytotoxicity call (HepG2): inactive | growth inhibition call (S. aureus RN4220): inactive

C[C@@H]1CN([C@H](C)CO)C(=O)c2cc(NS(=O)(=O)c3ccc(F)cc3)ccc2O[C@@H]1CN(C)S(=O)(=O)c1cn(C)cn1
cytotoxicity call (HSkMC): inactive | cytotoxicity call (HepG2): inactive | growth inhibition call (S. aureus RN4220): inactive

C=CCC[C@H](Cc1ccc(F)cc1)C(=O)OC[C@@H]1CCCN1C(=O)[C@@H](CC=C)CC(=O)N(CCO)Cc1ccccc1
cytotoxicity call (HSkMC): active | cytotoxicity call (HepG2): inactive | growth inhibition call (S. aureus RN4220): inactive

C[C@@H]1CCCCO[C@H](CN(C)Cc2ccc(C(=O)O)cc2)[C@H](C)CN([C@@H](C)CO)C(=O)c2cc(NS(=O)(=O)c3ccc(Cl)cc3)ccc2O1
cytotoxicity call (HSkMC): inactive | cytotoxicity call (HepG2): inactive | growth inhibition call (S. aureus RN4220): inactive

C[C@H](CO)N1C[C@H](C)[C@H](CN(C)C(=O)CCC(F)(F)F)OCCCC[C@H](C)Oc2ccc(NC(=O)c3ccccc3)cc2C1=O
cytotoxicity call (HSkMC): inactive | cytotoxicity call (HepG2): inactive | growth inhibition call (S. aureus RN4220): inactive

CN1C(=O)c2cc(NC(=O)c3cccs3)ccc2OC[C@@H]2O[C@H](CC(=O)NCC(F)(F)F)CC[C@H]21
cytotoxicity call (HSkMC): inactive | cytotoxicity call (HepG2): inactive | growth inhibition call (S. aureus RN4220): inactive

CC(O)Cn1cnc2c1c(=O)n(C)c(=O)n2C (configuration not stated)
cytotoxicity call (HSkMC): inactive | cytotoxicity call (HepG2): inactive | growth inhibition call (S. aureus RN4220): inactive

CCCC(=O)Nc1ccc2c(c1)OC[C@@H](C)N(C(=O)CN1CCOCC1)C[C@@H](C)[C@H](OC)CN(C)C2=O
cytotoxicity call (HSkMC): inactive | cytotoxicity call (HepG2): inactive | growth inhibition call (S. aureus RN4220): inactive

C[C@H]1CN([C@@H](C)CO)C(=O)c2cccc(NC(=O)Nc3ccc(C(F)(F)F)cc3)c2O[C@H]1CN(C)C(=O)Nc1ccc(C(F)(F)F)cc1
cytotoxicity call (HSkMC): inactive | cytotoxicity call (HepG2): inactive | growth inhibition call (S. aureus RN4220): inactive

CCOC(=O)CCC(=O)O[C@H]1[C@H](O[C@@H]2[C@@H](C)[C@H](O[C@H]3C[C@@](C)(OC)[C@@H](O)[C@H](C)O3)[C@@H](C)C(=O)O[C@H](CC)[C@@](C)(O)[C@H](O)[C@@H](C)C(=O)[C@H](C)C[C@@]2(C)O)O[C@H](C)C[C@@H]1N(C)C
cytotoxicity call (HSkMC): inactive | cytotoxicity call (HepG2): inactive | growth inhibition call (S. aureus RN4220): active
